In the supplement of paper PMC10126150:
Sequences with one replicate were seen in a single cluster, so their values are uncertain.

Tested on: ATP
Assay: switch fluorescence ratio, 500 uM ATP over buffer (Cy3 cluster intensity, sum of 5 cycles each) (fold (ratio)); higher = stronger signal-on switching upon ATP binding; sequences stand for … in TCGTCGGCAGCGTCAGATGTGTATAAGAGACAGTTTTTTTTTTTTTTTTTTTTTTTTT…TC
Conditions: aptamer strand: ATP DNA aptamer (quencher-CACCTGGGGGAGTATTGCGGAGGAAGG + anchor), 100 nM annealed; ATP concentration: 500 uM; one replicate
Method in brief: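 Values give the fluorescence ratio for each switch-domain sequence, averaged from per-cluster ratios of summed target-cycle to summed buffer-cycle Cy3 intensity. The Cy3-labelled switching-strand clusters sat on a modified Illumina MiSeq flow-cell, were annealed to 100 nM quencher-labelled ATP aptamer, and were imaged in selection buffer, then after 15 min with 500 uM ATP at 22 °C. Five cycles ran with NaOH stripping and re-annealing between them, and clusters outside 100-1000 RFU were excluded.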
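Also: ATP exposure 15 min at 22 °C before imaging.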

Row | Sequence | switch fluorescence ratio
1 | CGTCATTCGA | 0.956
2 | TCTACGGATA | 1.37
3 | TCAGCGAGGA | 1.26
4 | TTCCGTGGGC | 1.2
5 | AGCCACGATA | 1.18
6 | TTATAGATCG | 0.956
7 | CTCATGTGAA | 0.973
8 | TATTGCGC | 1.02
9 | CGGGTCATTA | 1.01
10 | CATTCCCGGC | 1.14
11 | GCACCTTCAC | 2.07
12 | GAAAAGCAGA | 1.01
13 | GCAAGCCGTC | 0.987
14 | CCAACAGGAG | 1.34
15 | CGTCACTTGA | 0.991
16 | ATCTAGGTGG | 1.03
17 | TAACGCCTGC | 1.07
18 | TGAATCGCTG | 1.02
19 | CCTAAGGTCA | 1.01
20 | GCGACAAAGC | 1.05
21 | CGGGTAGGAG | 0.993
22 | TATATAGAGA | 0.982
23 | GCCACTAATT | 1.03
24 | TTTTCAA | 0.993
25 | TTACTTAAAT | 1.08
26 | TCGAGTGAAA | 1.02

Row | Sequence | switch fluorescence ratio
27 | CTAGCCCGCG | 0.933
28 | CACTGAGACG | 1.05
29 | ATCGCTTTAG | 1.01
30 | ACTGTGCGCT | 0.983
31 | ATTAGGCAGG | 1.04
32 | GTGGGTCCTT | 1.02
33 | TCGTTGCTGT | 0.997
34 | CACTATTATT | 0.945
35 | CTGGTTGATG | 1.02
36 | ATAAGTGCGG | 0.989
37 | GCGTGCGCTT | 1.01
38 | GGAGCGGCCT | 1.03
39 | TATCTGAGGT | 1
40 | GCTACTTCTC | 1.11
41 | AGAAACCTAA | 1.11
42 | CAGGCCGCTG | 1.08
43 | ACTATGAGGC | 0.984
44 | CCGTCTGGCC | 1.05
45 | AAGCCGAGCT | 1.03
46 | CAACTATCCA | 1.03
47 | CTCGCCCGTG | 1.05
48 | CATAAGTACT | 1.22
49 | GGTGTTGTAG | 0.992
50 | TTGCCTTGGG | 0.988
51 | ATCAGCAGCA | 1.1
52 | GCTGATGCTC | 1.09

Row | Sequence | switch fluorescence ratio
53 | CTGCAACTTA | 1.19
54 | GCTCAACGCA | 1.06
55 | TCCCGCCCTT | 1.11
56 | GCACTAGAGT | 1.04
57 | TATGTTCGCG | 0.956
58 | CATAATGATC | 1.02
59 | GTCATTGGCG | 1.06
60 | TTCGGCCTAA | 1
61 | CGTCTGAGTT | 1
62 | ACTCGCATTG | 1.78
63 | ATCGTAGTC | 1.03
64 | CTTTTGGG | 0.974
65 | GGTGATTGGC | 1.08
66 | ATAACTTGC | 1.34
67 | CGCATGTCA | 1.14
68 | AGTTAAGTT | 1.01
69 | ACAAAGCATA | 1.52
70 | GAGGGGCGG | 1
71 | AGGGGGGTCC | 1.05
72 | AAGCATTAAT | 0.997
73 | GAAGCTATAG | 3.76
74 | TAGTATCTTC | 0.995
75 | GCGAATTCGC | 1.01
76 | GGAGACTCAG | 0.923
77 | AGTAACAAAT | 0.999
78 | GGTAAGAAGG | 0.986

Row | Sequence | switch fluorescence ratio
79 | GAGTGTACTC | 0.952
80 | TGTGTTAGGA | 0.987
81 | ACTATGCTTG | 1.08
82 | TCTAAGTGAT | 0.98
83 | TGAGTGTAAG | 0.997
84 | TTCTGGAGTA | 1.07
85 | TACGAGGAAC | 1.03
86 | AACTCCTCTA | 1.05
87 | ACCAGTGGTG | 1.11
88 | GGTTTGCATA | 0.969
89 | AAGACATTTT | 0.979
90 | GGTTATCACT | 0.943
91 | ACGCGACGGC | 1.17
92 | GAGTGCCGAA | 1.02
93 | TCTTTTCTC | 1.02
94 | CATATTT | 0.987
95 | ATTGCAGGTG | 2.75
96 | GGTGGTGCGG | 1.01
97 | ATGTTCAGGT | 1.04
98 | ATCGCATACC | 2.65
99 | ATCGAACTGG | 0.97
100 | AGGAACGAAG | 0.995
101 | CGGTCAAAAT | 0.997
102 | TTTACGTCAC | 1.86
103 | AATACGTGCT | 1.02
104 | GTTCGTTGTC | 1.04

Row | Sequence | switch fluorescence ratio
105 | CCCCGTTTTG | 1.1
106 | GAGCATCAAA | 1.01
107 | TCGGGTTT | 1.02
108 | GATTCGGACT | 0.987
109 | TGATAGCGG | 1.03
110 | AATTGAATCG | 1.12
111 | ACGTGCCATA | 0.976
112 | TGGCACTGTT | 1
113 | CAACCACACG | 1.39
114 | ACATCAGCAG | 0.977
115 | GCTTTGAGGC | 0.977
116 | CGGCCCGGGG | 1.05
117 | TGGCGAAGTC | 1.07
118 | GGACTCAAAC | 1.89
119 | TCGGGAGGGA | 0.996
120 | ATGTTACTT | 1.04
121 | GTTCAGTTGG | 1.02
122 | ATATTAGACA | 1.01
123 | ATGTATGATT | 1.03
124 | TGGGGCATAG | 0.965
125 | GGGTTGATCA | 0.955
126 | TTTCCACGGC | 1.07
127 | CGTCGTTTGA | 1.09
128 | CTTTATCGGG | 0.956
129 | TGGGCGACA | 1
130 | TTGGGAATTA | 0.98

Row | Sequence | switch fluorescence ratio
131 | GTGGTGCTGG | 1.01
132 | AACATGTTGT | 1.07
133 | CGTCGATAGG | 1
134 | CGCCCGCAAC | 2.52
135 | TTCTCATCAT | 1
136 | ACACTTCATT | 1.04
137 | AAAGCCTAAA | 0.96
138 | GGCAGTTACT | 1.06
139 | ACTTGTATT | 1.04
140 | CGTGTATCGG | 0.995
141 | AAGCTATTGT | 0.972
142 | CGAGAAACGC | 1
143 | TACCGCTCGT | 1.25
144 | AGGCAGGCTT | 0.953
145 | ATTGCTTG | 1.04
146 | ATTTACCTTT | 1.06
147 | GAGAATGGGC | 1.01
148 | TCTATCGGC | 0.998
149 | GGGGTGCCGA | 1.04
150 | TACTCAGGGA | 1.18
151 | CCCCATGCTC | 1.29
152 | TAGTATTTTG | 0.987
153 | GTTGGGAATA | 1.05
154 | GACCCTTTAT | 0.967
